Data taken from PubChem BioAssay AID504706 (National Center for Advancing Translational Sciences (NCATS), 2011).
Screen size: about 320,000 compounds; about 200 (0.062%) were called active. Inconclusive results, whose numbers are uncertain, are shown with a selection of clear calls. The call rests on the fitted dose curve; in most records, active means well fitted activation curve with a large enough effect; inconclusive means small, poorly fitted or top-dose-only effect; inactive means no such curve, though single readings can be large or run the other way. Potencies of inconclusive entries are left out as doubtful fits.

assay: qHTS assay for re-activators of p53 using a Luc reporter; details: H1299 p53-A138V BP100-luciferase reporter, luminescence, 24 h; series mostly up to 92.2 µM; further: nearly all actives have a fitted effect of over 45% in size
How it was run: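 p53-null H1299 cells stably carrying temperature-sensitive p53-A138V and a BP100-luciferase reporter were pinned with compounds (4-point, 1:5 series) and held 24 hrs at 37 deg C. Luminescence was read 10 min after detection reagent.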
Potency means the concentration at half of the fitted maximal effect; tags describe the fitted curve by direction and shape.

SMILES | Potency
C=CCNS(=O)(=O)c1cc2c3c(c1)CCN3C(=O)CC2 | inactive
Cc1ccc(C(=O)Cn2nnc(-c3cccs3)n2)cc1 | inconclusive [activator, full curve, poor fit]
CCc1nonc1NC(=O)c1oc2ccc(Cl)cc2c1C | inconclusive [activator, partial curve, poor fit]
C/C=C/C=C/C(=O)Nc1nccs1 | inconclusive [activator, partial curve, poor fit]
CC(=O)c1ccc(NC(=S)N2CCCC(CO)C2)cc1 (stereo unspecified) | inconclusive [activator, full curve, poor fit]
CCN(CC)CCN(C(=O)c1ccc2ccccc2c1)c1nc2cc3c(cc2s1)OCO3 | inconclusive [activator, single point]
Cc1cc(C(=O)CSc2nc3ccccc3[nH]2)c(C)n1Cc1ccco1 | inconclusive [activator, partial curve, poor fit]
Cc1cc(C(=O)CCl)c(C)n1-c1ccon1 | inconclusive [activator, single point]
COc1cc(CN2CCSCC2)c([N+](=O)[O-])cc1OC | inactive
COC(=O)c1ccc(CS(=O)(=O)c2ccc(C)cc2)o1 | inactive
O=C(O)c1ccc(N(c2ccccc2)c2ccccc2)cc1 | inactive
Cc1ccc(NC(=S)C2=C(O)c3sccc3N(C)S2(=O)=O)cc1 | inactive
O=C(O)C(Oc1ccc2cc(-c3ccc(Cl)cc3)c(=O)oc2c1)c1ccccc1 (stereo unspecified) | inconclusive [activator, full curve, poor fit]
O=C(COC(=O)c1ccc(Br)o1)Nc1nc2ccccc2s1 | inconclusive [activator, single point]
O=C1CSC(c2nn(-c3ccccc3)cc2-c2cc3ccccc3oc2=O)N1Cc1ccco1 (stereo unspecified) | inactive
Cc1ccc(C)c(NC(=O)NCCN2CCCCC2)c1 | inconclusive [activator, single point]
Cc1ccn2c(C(=O)NN=C3CCN(C)CC3)c(C)nc2c1 | inactive
Cc1c(N=C2C=CC(=O)c3ccccc32)c(=O)n(-c2ccccc2)n1C | inconclusive [activator, partial curve, poor fit]
Cc1cc(NC(=O)c2ccco2)sc1C | inconclusive [activator, full curve, poor fit]
COc1ccc(NC(=O)N2CCCC2C(=O)NCc2ccccc2Cl)cc1 (stereo unspecified) | inconclusive [activator, single point]
CCOC(=O)CSc1nnc(CNC(=O)c2cccs2)n1-c1cc(OC)ccc1OC | inconclusive [activator, single point]
CSc1ccc(CNC(=O)Cc2ccc(NC(=O)C3=C(C)OCCS3)cc2)cc1 | inconclusive [activator, partial curve, poor fit]
COC(=O)CCC(=O)COc1ccc(OC)cc1C#N | inconclusive [activator, partial curve, poor fit]
O=C(OCc1ccc(Cl)c(Cl)c1)c1cnccn1 | inactive

SMILES | Potency
COc1cc(/C=N/Nc2nc3ccccc3[nH]2)cc(OC)c1O | inconclusive [activator, single point]
O=C(NC(=S)NCCc1ccccc1)C1CCCCC1 | inconclusive [activator, partial curve, poor fit]
CN1CCSc2ccc(C(=O)Nc3cc(F)ccc3F)cc21 | inconclusive [activator, full curve, poor fit]
Cc1ccc(C)c(N2CCN(C(=O)CCc3nc(-c4ccccc4Br)no3)CC2)c1 | inconclusive [activator, partial curve, poor fit]
CCc1n[nH]c(=S)n1/N=C/c1cccc2ccccc12 | inactive
O=C(O)C(=O)/C(=C\c1ccccc1)c1ccc2ccccc2n1 | inconclusive [activator, full curve, poor fit]
O=C(c1cc2ccccc2oc1=O)N(Cc1cccs1)Cc1ccccc1Cl | inconclusive [activator, partial curve, poor fit]
Nc1nc(-c2ccccn2)nc(N)c1Cc1ccc(Cl)cc1Cl | inconclusive [activator, partial curve, poor fit]
Cn1c(NC(=O)CCC2CCCCC2)cc(=O)n(C)c1=O | inconclusive [activator, partial curve, poor fit]
O=C(OCc1nnc(-c2ccccc2)o1)C1CC(=O)N(CCc2ccccc2)C1 (stereo unspecified) | inconclusive [activator, single point]
CC(C)C[C@H](NC(=O)Nc1ccc2c(c1)OCCO2)C(=O)O | inactive
CCCN=C(C)C1=C(O)c2ccccc2C1=O | inconclusive [activator, partial curve, poor fit]
Cc1ccccc1OCCOc1ccccc1C=C(C#N)C#N | inconclusive [activator, partial curve, poor fit]
COc1ccccc1NC(=O)NCCN1CCCCC1 | inconclusive [activator, partial curve, poor fit]
Cc1nnc(-c2ccc(Oc3ccc(Br)cc3)c([N+](=O)[O-])c2)o1 | inactive
Cc1ccc(OCc2cc(C(=O)N3CCC(c4ccccc4Cl)C3)no2)cc1C (stereo unspecified) | inconclusive [activator, partial curve, poor fit]
Cc1ccc(N2CCN(C(=S)c3ccc(-c4cccc([N+](=O)[O-])c4)o3)CC2)cc1 | inconclusive [activator, partial curve, poor fit]
COc1ccc(-c2cc(=Nc3ccc(C)cc3)c3ccccc3o2)cc1 | inactive
CCOc1cc(/C=N/Nc2ccc(C(=O)O)cc2)ccc1OC(=O)c1ccccc1C | inactive
Cc1cccc(NC(=O)CCN2CCN(C/C=C/c3ccccc3)CC2)c1 | inactive
O=C(c1cc(-c2ccccc2O)on1)N1CCCC1 | inconclusive [activator, partial curve, poor fit]
CCN(CC)C(=O)CSc1ncnc2sc(-c3ccccc3)cc12 | inactive
C=CCn1c(SCC(=O)c2[nH]c(C)c(C(C)=O)c2C)nnc1-c1ccncc1 | inactive
CSCCC(NC(=O)c1ccccc1Cl)C(=O)NNC(=O)c1csc(N2CCOCC2)n1 (stereo unspecified) | inconclusive [activator, single point]

SMILES | Potency
O=C(COc1ccc(Br)cc1)NCCCNC(=O)c1cccnc1 | inconclusive [activator, single point]
CCCOC(=O)c1ccc(Oc2c(-c3ccc(OC)cc3O)n[nH]c2C)cc1 | inactive
COc1ccc(SCCN2CC[C@@H](C)CCC2=O)cc1 | inconclusive [activator, partial curve, poor fit]
N#Cc1c(/N=C/N2CCOCC2)sc2c1CCCCC2 | inconclusive [activator, full curve, poor fit]
COc1ccc(C(CC(=O)c2ccc(O)cc2)S(=O)(=O)c2ccc(C)cc2)cc1 (stereo unspecified) | inconclusive [activator, partial curve, poor fit]
CCC(=O)Nc1ccc(NC(=O)c2cc3ccccc3o2)c(OC)c1 | inactive
c1ccc2nc(-c3ccc4c(c3)OCO4)ccc2c1 | inconclusive [activator, partial curve, poor fit]
COc1ccc(Cl)cc1NC(=S)NN1CCOCC1 | inactive
Cc1nn(Cc2noc(C(=O)NCc3ccc4c(c3)OCO4)n2)c(C)c1Br | inactive
Cc1nc(-c2ccccc2)nc2[nH]c(=O)n(-c3ccccc3)c(=O)c12 | inconclusive [activator, partial curve, poor fit]
O=C(CNC(=O)c1ccc2ccccc2c1)Nc1ncccc1O | inconclusive [activator, full curve, poor fit]
CCN1C(=O)CSC1=Nc1cccc(C(=O)O)c1 | inconclusive [activator, single point]
O=C(O)/C=C/c1nc(-c2ccccc2)n2ccccc12 | inconclusive [activator, full curve, poor fit]
O=C(Nc1ccc2c(c1)OCCO2)c1ccc2ccccc2n1 | inconclusive [activator, partial curve, poor fit]
S=C(Nc1ccc(Cl)cc1Cl)NC1CCCCC1 | inactive
CN1CCN(CCCN2c3ccccc3Sc3ccc(Cl)cc32)CC1 | inactive
Cc1ccc(-c2cc(C(=O)NCc3ccc4c(c3)OCO4)no2)cc1 | inconclusive [activator, single point]
O=C(O)COc1ccccc1/C=N/NC(=O)CNC(=O)c1ccc(F)cc1 | inactive
CC1(C)SC(=S)N(Cc2ccc3c(c2)OCO3)C1N(O)C(=O)NC1CCCCC1 (stereo unspecified) | inactive
Cc1ccc(Nc2nc3c(c(=O)[nH]2)CCCC3)cc1 | inconclusive [activator, partial curve, poor fit]
COc1ccc(CSC(=N)N)cc1[N+](=O)[O-] | inconclusive [activator, single point]
NC(=O)c1ccsc1NC(=O)COC(=O)c1c(F)cccc1Cl | inconclusive [activator, full curve]
C/C(=N\Nc1nc2ccccc2s1)c1ccc(Br)s1 | inactive
